This is one part of the list.
T1: UNK ZnF1-3 (human, UniProt Q9C0B0 31-174)
T1 sequence: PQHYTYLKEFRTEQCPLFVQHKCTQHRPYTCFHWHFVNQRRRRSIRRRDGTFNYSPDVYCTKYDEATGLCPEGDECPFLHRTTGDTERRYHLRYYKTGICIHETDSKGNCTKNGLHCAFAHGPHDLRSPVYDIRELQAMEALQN

B1: chr17:56167648:56167649:+_ENSG00000264364_ENST00000579991|hu_mus|FALSE|FALSE (ssRNA)
RNA: GGGAGUUCUACAGUCCGACGAUCUGUUCUCACCCUCACAACAGGGAACAUAAAAGCCCACUUAGAACUAACUGCCCUCUACUUCCCAUACACCCUAGAGAUUCCACUUAUCCUGCCCCUUCCCACCCUUCUACCCCAAACCCACAACAGAGGAUUGAGCAUCA
B2: chr3:176740097:176740098:-_ENSG00000177565_ENST00000430069|hu_mus|hu_hu_hu_mus_True|28_48 (ssRNA)
RNA: GGGAGUUCUACAGUCCGACGAUCUGUUUUGUAUACCACAAAAGGAGGCACUUUCAGUAUCUGCAAAAGGUGUUUAGUCCUAAAACAUACUUACCUAGAGGAUAACUAAAACAGAAUAUCUGUUACACUCUAAGACCUACUCCACAACAGAGGAUUGAGCAUCA
B3: chr12:32871593:32871594:+_ENSG00000087470_ENST00000452533|hu_mus|motif|central (ssRNA)
RNA: GGGAGUUCUACAGUCCGACGAUCCAAUACAUCCAUGGCAUCAGUACCCGCAUCCAUGAGAUCAAGUUUAGUGAUUACAGCGGGAGUUCUGCGCCCAUCUGGAUCUACCUCUCUGGAAAUCUUGAGUGCUUCUGAUGUUGCCAUCAACAGAGGAUUGAGCAUCA
B4: 84155827_84155947_371_CDS_ENSMUSG00000045658_ENSMUST00000168574|mouse|control|control (ssRNA)
RNA: GGGAGUUCUACAGUCCGACGAUCUGCCUUCAUCAGGGGUGUGGUGGUGCACAGCUCAAUGGCUUCCGGCUCAUGGAAGAGGACUGCUGGUAUAGGUUCCUUUUUCAGUGUUAGGACAUUCAACUUAGACUUCAGCAUGGUCUGCAACAGAGGAUUGAGCAUCA
B5: 33854873_33854993_5922_3pUTR_ENSMUSG00000042197_ENSMUST00000044455|mouse|control|control (ssRNA)
RNA: GGGAGUUCUACAGUCCGACGAUCUGGGGCAAAAUAUGCCUCACAUUAAAGAAAAAGGUUUUUGUUAUUGCAAUCUUCUACUUCUAAAGAGAUCUAACACAUAAUUUCAAGCCUUCAGCAGAAUCCCAAUUAACUUCAAGAACACAACAGAGGAUUGAGCAUCA
B6: chr14:21319500:21319501:-_ENSMUSG00000021816_ENSMUST00000161445|mus_mus|motif|central (ssRNA)
RNA: GGGAGUUCUACAGUCCGACGAUCGAGCUGUACUCCAGGGCAUGAGGGAAGCAGGCCACCAAAGUAAAGGGAAAUACCAAACGGCAGUGGUAAUCAGUACAGGUCAGUCACUGUAAAAUUAGCACAUGGUUCCAUUUAGUUUAACAACAGAGGAUUGAGCAUCA

Target: T1, UNK ZnF1-3
Experiment: nsRBNS (natural sequence RNA bind-n-seq); RBNS binding buffer (assumed for nsRBNS): 25 mM Tris pH 7.5, 150 mM KCl, 3 mM MgCl2, 0.01% Triton X-100, 500 ug/ml BSA, 20 U/ml SUPERase-In, 4 C; UNK is unkempt and MSI1 is Musashi-1; names of the RNAs are library labels; protein concentration not given here; high values mean tight binding

Binder	binding signal
B1	1.74 enrichment R
B2	0.844 enrichment R
B3	1.07 enrichment R
B4	0.983 enrichment R
B5	1.06 enrichment R
B6	1.58 enrichment R

— article PMC12136788
